Here are results for 45 compounds from publication PMC4336329 (PLoS ONE, 2015).

Each structure is given as a SMILES string. Hit rate of the full screen: of about 310,000 compounds, about 14,000 (4.5%) showed an effect of 50% or more. Effects have a minus sign here. The list shows a part of the results.
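Note: peak tail current of the secondary pulse compared with the same well before compound.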

In this test the target is human ether-à-go-go-related gene (hERG) potassium channel (human, UniProt Q12809). The test is described as follows: primary screen, population patch clamp on CHO cells stably expressing hERG.
Sequence of human ether-à-go-go-related gene (hERG) potassium channel (Q12809 whole entry, looked up): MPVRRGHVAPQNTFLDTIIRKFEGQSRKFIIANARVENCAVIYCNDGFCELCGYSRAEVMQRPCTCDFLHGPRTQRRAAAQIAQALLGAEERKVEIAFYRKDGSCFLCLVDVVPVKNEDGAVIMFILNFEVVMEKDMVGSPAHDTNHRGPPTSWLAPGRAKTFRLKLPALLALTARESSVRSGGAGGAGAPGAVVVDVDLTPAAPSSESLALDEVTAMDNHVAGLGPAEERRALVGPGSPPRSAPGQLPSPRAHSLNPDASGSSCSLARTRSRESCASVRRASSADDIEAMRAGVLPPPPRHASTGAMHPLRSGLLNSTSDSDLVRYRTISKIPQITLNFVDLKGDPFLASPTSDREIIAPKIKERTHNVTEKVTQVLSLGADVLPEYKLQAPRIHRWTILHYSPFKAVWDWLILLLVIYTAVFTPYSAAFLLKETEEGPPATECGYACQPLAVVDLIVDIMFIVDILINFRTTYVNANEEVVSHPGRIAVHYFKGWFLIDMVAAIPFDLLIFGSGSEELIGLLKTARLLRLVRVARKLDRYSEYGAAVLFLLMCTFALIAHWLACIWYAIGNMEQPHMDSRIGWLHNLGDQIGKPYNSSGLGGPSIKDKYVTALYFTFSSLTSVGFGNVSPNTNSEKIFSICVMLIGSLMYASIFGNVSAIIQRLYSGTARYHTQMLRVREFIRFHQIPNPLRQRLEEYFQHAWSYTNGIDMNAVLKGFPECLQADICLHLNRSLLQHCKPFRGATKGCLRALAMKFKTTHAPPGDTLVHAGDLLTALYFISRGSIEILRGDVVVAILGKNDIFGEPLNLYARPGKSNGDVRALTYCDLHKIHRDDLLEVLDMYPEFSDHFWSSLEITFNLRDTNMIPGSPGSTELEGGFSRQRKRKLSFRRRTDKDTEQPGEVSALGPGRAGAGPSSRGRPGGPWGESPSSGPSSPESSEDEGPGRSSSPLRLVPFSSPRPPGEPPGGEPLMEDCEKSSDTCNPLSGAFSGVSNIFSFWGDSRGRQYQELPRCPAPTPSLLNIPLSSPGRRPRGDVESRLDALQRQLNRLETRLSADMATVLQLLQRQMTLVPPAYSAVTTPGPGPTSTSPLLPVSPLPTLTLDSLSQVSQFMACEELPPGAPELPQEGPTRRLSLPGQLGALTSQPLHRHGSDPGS
With `CSc1ccc(/C=N/NC(=O)c2cccs2)cc1`, the “hERG current change (%, negative = inhibition) at 10uM” value is on record as 14.1%.

As to `CC1Cc2ccccc2N1C(=S)Nc1cccc(S(=O)(=O)N(C)C)c1` (stereo not drawn), the “hERG current change (%, negative = inhibition) at 10uM” value is given as 2.06%.

For `S=c1nc(-c2ccccc2)n(-c2ccccc2)[nH]1`, the “hERG current change (%, negative = inhibition) at 10uM” value was determined as 16.8%.

`COc1ccc(CNC(=O)[C@]2(C)CCC[C@@]3(C)C4CC[C@@]5(C)C[C@]4(CCC32)CC5=O)cc1` (stereo partly drawn): the “hERG current change (%, negative = inhibition) at 10uM” value was 10.2%.

Turning to `O=C(c1ccc2nc(N3CCCCC3)sc2c1)N1CCN(c2ccccn2)CC1`, the “hERG current change (%, negative = inhibition) at 10uM” value is given as -13.6%.

As for `Cc1cc(=O)[nH]c(SCC(N)=O)c1C#N`, the “hERG current change (%, negative = inhibition) at 10uM” value stood at 8.18%.

In the case of `COc1ccccc1NC(=O)NNC(=O)C(C)Oc1ccc2ccccc2c1` (stereo not drawn), the “hERG current change (%, negative = inhibition) at 10uM” value came to 9.36%.

For the compound `N#C/C(=N/Nc1ccc(OC(F)(F)F)cc1)C(N)=S`, the “hERG current change (%, negative = inhibition) at 10uM” value is listed as -3.33%.

As for `COc1ccc(C(=O)NCC(c2ccco2)N2CCc3ccccc32)cc1OC` (stereo not drawn), the “hERG current change (%, negative = inhibition) at 10uM” value is -38.5%.

`CCCC(=O)NC(c1ccc(OC)cc1)c1c(O)ccc2ccccc12` (stereo not drawn): the “hERG current change (%, negative = inhibition) at 10uM” value is reported as 19.8%.

As for `Cc1ccccc1CN(C)Cc1cc(=O)oc2c(C)c(C)ccc12`, the “hERG current change (%, negative = inhibition) at 10uM” value worked out at 4.49%.

As for `Cc1nnc(C)n1/N=C/c1cc(Br)cc(Br)c1O`, the “hERG current change (%, negative = inhibition) at 10uM” value is 14.1%.

`Cc1nc(NC(=O)c2c(-c3ccccc3)noc2C)sc1C(=O)N(C)C`: the “hERG current change (%, negative = inhibition) at 10uM” value is 16.7%.

`COc1ccc(NC(=O)CSc2nc3ccncc3[nH]2)c(OC)c1`: the “hERG current change (%, negative = inhibition) at 10uM” value was 6.07%.

Consider `COc1cccc(C(=O)NCC(=O)NCc2cc(=O)n(C)c(=O)n2C)c1`, for which the “hERG current change (%, negative = inhibition) at 10uM” value is recorded as 15.1%.

Turning to `CCN1CCN(CC(O)COc2ccc(Cl)cc2)CC1.Cl` (stereo not drawn), the “hERG current change (%, negative = inhibition) at 10uM” value was -36.2%.

Consider `COC(=O)c1cn(NC(=O)c2ccc([N+](=O)[O-])cc2Cl)c(=O)c2ccccc12`, for which the “hERG current change (%, negative = inhibition) at 10uM” value is recorded as -5.68%.

For `Cc1oc(-c2ccccc2F)nc1CN1CCC(C(=O)NCc2cccnc2)CC1`, the “hERG current change (%, negative = inhibition) at 10uM” value is given as -26.7%.

For the compound `COc1cc(-c2nc3ccccc3s2)ccc1O`, the “hERG current change (%, negative = inhibition) at 10uM” value is on record as -3.7%.

As for `CCOc1ccc(OCC)c2sc(C)nc12`, the “hERG current change (%, negative = inhibition) at 10uM” value came out at 4.86%.

As for `Cc1ccc(N2CC(C(=O)OCC(=O)Nc3ccc(F)cc3F)CC2=O)cc1` (stereo not drawn), the “hERG current change (%, negative = inhibition) at 10uM” value was -14.3%.

Turning to `Cl.N#C/C=C/N1CCN(Cc2ccc3c(c2)OCO3)CC1`, the “hERG current change (%, negative = inhibition) at 10uM” value is 1.29%.

`Cn1c(=O)c2c(nc3n2CC(COc2ccccc2)O3)n(C)c1=O` (stereo not drawn): the “hERG current change (%, negative = inhibition) at 10uM” value is on record as 8.98%.

Regarding `O=C(NCC1CCCO1)C1CCC(=O)N1CCc1ccccc1` (stereo not drawn), the “hERG current change (%, negative = inhibition) at 10uM” value worked out at 2.7%.

`Cc1c(Oc2cc(NN3CCCCC3)c([N+](=O)[O-])cc2[N+](=O)[O-])cccc1[N+](=O)[O-]`: the “hERG current change (%, negative = inhibition) at 10uM” value stood at 13.2%.

For the compound `O=C(NC1=C(NC2CCS(=O)(=O)C2)C(=O)c2ccccc2C1=O)c1ccccc1` (stereo not drawn), the “hERG current change (%, negative = inhibition) at 10uM” value is recorded as -7.31%.

In the case of `CC1(C)Cc2c(sc(/N=C/N3CCCCC3)c2C#N)C(C)(C)N1`, the “hERG current change (%, negative = inhibition) at 10uM” value is listed as -31%.

On to `COc1cccc(/C=C2\C=C(c3ccc(C)cc3)OC2=O)c1OC(C)=O`, for which the “hERG current change (%, negative = inhibition) at 10uM” value was 12.2%.

For the compound `COc1ccc(CCNC2CCc3ccccc3C2)cc1` (stereo not drawn), the “hERG current change (%, negative = inhibition) at 10uM” value is -56%.

Regarding `C=CCn1c(C)cc(-c2csc(NC(=O)CCc3nc4ccccc4c(=O)[nH]3)n2)c1C`, the “hERG current change (%, negative = inhibition) at 10uM” value was -23.8%.

`N#CCCNc1c(Cl)cc(Cl)cc1C(=O)O`: the “hERG current change (%, negative = inhibition) at 10uM” value worked out at 10.5%.

As for `Cc1nn(-c2ccccc2Cl)c(Cl)c1/C=N/Nc1cccc(C(=O)O)c1`, the “hERG current change (%, negative = inhibition) at 10uM” value is listed as 21.1%.

In the case of `O=C(Cn1cc(/C=N/NC(=O)c2cccc3ccccc23)c2ccccc21)Nc1ccc(F)cc1`, the “hERG current change (%, negative = inhibition) at 10uM” value is reported as 11.7%.

`O=C(COC(=O)c1ccc(Cl)nc1)Nc1ccccc1OC(F)F`: the “hERG current change (%, negative = inhibition) at 10uM” value is recorded as -9.04%.

As to `Cc1ccc(-n2nc3c(=S)[nH]nc(C)c3c2C)cc1`, the “hERG current change (%, negative = inhibition) at 10uM” value stood at 14.3%.

For the compound `O=C(Nc1ccc2c(c1)OCO2)C1CC(=O)N(c2ccccc2)C1` (stereo not drawn), the “hERG current change (%, negative = inhibition) at 10uM” value is listed as 20.7%.

Consider `Cc1ccc(C(=O)NCC(=O)N2CCCCCCC2)cc1`, for which the “hERG current change (%, negative = inhibition) at 10uM” value turned out to be 7.06%.

As to `Cn1c(NCc2ccccc2)cc(=O)n(C)c1=O`, the “hERG current change (%, negative = inhibition) at 10uM” value is 7.29%.

`COC(=O)Cn1cnc2c(cnn2-c2ccc(OC)cc2)c1=O`: the “hERG current change (%, negative = inhibition) at 10uM” value is on record as 15.7%.

For the compound `O=[N+]([O-])c1ccc(Oc2cnc3ccccc3n2)cc1`, the “hERG current change (%, negative = inhibition) at 10uM” value came to 7.44%.

Consider `CCOc1ccc(CCN2C(=O)C3C4CCC(O4)C3C2=O)cc1OCC` (stereo not drawn), for which the “hERG current change (%, negative = inhibition) at 10uM” value came out at 9.07%.

As for `CC(C)[C@H](NC(=O)C1(c2ccccc2)CCN(C(=O)OC(C)(C)C)CC1)C(=O)O`, the “hERG current change (%, negative = inhibition) at 10uM” value is on record as -10.2%.

Regarding `CC(=O)N1c2ccc(S(=O)(=O)N3CCC(C(=O)Nc4ccc(F)cc4)CC3)cc2CC1C` (stereo not drawn), the “hERG current change (%, negative = inhibition) at 10uM” value turned out to be 20.6%.

Turning to `Cc1cccc(NC(=O)C(Cc2ccccc2)c2nn[nH]n2)c1C` (stereo not drawn), the “hERG current change (%, negative = inhibition) at 10uM” value amounted to 9.83%.

In the case of `O=C(CCC(=O)NC1CCCCCCC1)Nc1nnc(C(F)(F)F)s1`, the “hERG current change (%, negative = inhibition) at 10uM” value was -8.52%.
